Holding throughout (assay): Primary Screen for Target Class Profiling of Small Molecule Inhibitors of Methyltransferases
Assay [1] has as its target Glycine N-methyltransferase (Homo sapiens) (UniProt Q14749). The conditions noted are these: purified enzyme, MTase-Glo SAH luminescence; measured here: GNMT inhibition; at 40 µM; stronger effect = lower value. The gist of the method:
(§1)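 Each enzyme was assayed with SAM and its substrate. SAH formation detected by MTase-Glo luminescence; single-point 40 uM screen[…].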

Assay [2] concerns the target Guanidinoacetate N-methyltransferase (Homo sapiens) (UniProt Q14353). The conditions noted are these: purified enzyme, MTase-Glo SAH luminescence; measured here: GAMT inhibition; at 40 µM; stronger effect = lower value. Put shortly:
as §1

In assay [3] the target is Histamine N-methyltransferase (Homo sapiens) (UniProt P50135). The conditions noted are these: purified enzyme, MTase-Glo SAH luminescence; measured here: HNMT inhibition; at 40 µM; stronger effect = lower value. The gist of the method:
as §1

Assay [4] deals with Nicotinamide N-methyltransferase (Homo sapiens) (UniProt P40261). Particulars: purified enzyme, MTase-Glo SAH luminescence; measured here: NNMT inhibition; at 40 µM; stronger effect = lower value. Put shortly:
as §1

In assay [5] the target is Phenylethanolamine N-methyltransferase (Homo sapiens) (UniProt P11086). The conditions noted are these: purified enzyme, MTase-Glo SAH luminescence; measured here: PNMT inhibition; at 40 µM; stronger effect = lower value. The gist of the method:
as §1

This is an account of results in PubChem BioAssay AID1745853 (National Center for Advancing Translational Sciences (NCATS), 2022).

Some of the results follow. These are further read-outs of the screen, such as a control signal, another cell line or another target. No call is given for them. Square brackets hold non-standard residues; d marks the D form. Peptide text beside a SMILES is read from it.
% is scaled to controls: 0 for no effect and ±100 for the full control effect.

On to `CC(C)(C)CC(=O)NC[C@H]1O[C@H](Cc2cc(-c3ccc(F)cc3)on2)CC[C@@H]1O`, for which the activity change, negative = inhibition is -5.91% in assay [1]; -6.22% in assay [2]; -2.72% in assay [3]; -14% in assay [4]; -8.76% in assay [5].
The corresponding values for `CC(=O)N1CCC(C(=O)NCc2cccnc2N(C)Cc2ccccc2)CC1` are -1.45%, 0.515%, -1.1%, -1.8% and -6.65%.
`CC(C)CNC(=O)c1ccc2c(=O)n(Cc3ccccc3)c3nn(Cc4ccc(F)cc4)c(=O)n3c2c1`: the activity change, negative = inhibition in assay [1] worked out at 2.91%; in assay [2] it was 0%; in assay [3] it was 8.74%; in assay [4], 0.457%; in assay [5], 4.12%.
Regarding `O=C(CCc1ccccc1)NCC(=O)N1CCN(c2ccccn2)CC1`, the activity change, negative = inhibition in assay [1] was -1.42%; in assay [2] it was 0.804%; in assay [3], 0.453%; in assay [4] it was -0.106%; in assay [5], 4.86%.
The corresponding values for `C=C1C(=O)O[C@@H]2C[C@]3(C)[C@@H](CCC(C)O)[C@@H]3C[C@H]12` (stereo partly drawn) are 1.04%, 1.03%, 10.4%, -11.1% and -5.56%.
As for `O=c1c2ccccc2n2c(-c3ccc(Br)cc3)nnc2n1Cc1ccc(F)cc1`, the activity change, negative = inhibition in assay [1] came out at 0.289%; in assay [2] it was 0%; in assay [3] it was 10.5%; in assay [4] it was 4.39%; in assay [5] it was 3.91%.
Turning to `C=C1CCC2[C@](C)(CO)C(O)CC[C@]2(C)C1C/C=C1/C(=O)OCC1O` (stereo partly drawn), the results for the activity change, negative = inhibition in assay [2], in assay [4] and in assay [5] were 3.19%, -6.8% and -43.6%, respectively.
Regarding `CCC(C)NC(=O)c1ccc2c(=O)n(CC(C)C)c3nn(Cc4ccccc4Cl)c(=O)n3c2c1` (stereo not drawn), the activity change, negative = inhibition was -4.33% in assay [1]; -3.09% in assay [2]; -1.05% in assay [3]; -5.3% in assay [4]; -5.88% in assay [5].
The corresponding values for `O=C(Nc1ccnc(NC(=O)C2CC2)c1)c1c(Cl)cccc1Cl` are 0.457%, 0.701%, 8.93%, -18.7% and 0.272%.
The matching figures for `COCCN1CCCC2(CCN(c3ccc4ccccc4n3)C2)C1=O` (stereo not drawn): -0.106%, 0.066%, -11.1%, -6.16% and 7.22%.
The matching figures for `COc1ccccc1-n1nc(Cc2ccccc2)n(CC(=O)NC(C)C2CC2)c1=O` (stereo not drawn): -2.99%, -3.91%, -1.59%, -1.43% and -3.18%.
With `O=C(CCc1ccc2c(c1)CNCCO2)NCC1CC1`, the activity change, negative = inhibition is -0.088% in assay [1]; 1.53% in assay [2]; 1.55% in assay [3]; 0.108% in assay [4]; -2.21% in assay [5].
The matching figures for `CC1CCN(S(=O)(=O)c2ccc3c(ccn3CCC(=O)NCc3ccccc3Cl)c2)CC1`: 4.09%, 4.33%, 3.76%, -3.16% and -0.277%.
The matching figures for `CC(C)Cn1c(=O)c2ccccc2n2c(=O)n(CC(=O)c3ccc(F)cc3)nc12`: 5.58%, 0%, 12.9%, 6.32% and 9.18%.
Regarding `CC(=O)N[C@H](Cc1ccc(O)cc1)C(=O)N[C@H](CCCN=C(N)N)C(=O)N[C@H](Cc1ccccc1)C(N)=O` (Ac-[dY]-[dR]-[dF]-NH2), the activity change, negative = inhibition in assay [1] is -2.35%; in assay [2], -7.38%; in assay [3], 5.02%; in assay [4] it was -11.7%; in assay [5] it was 0.575%.
The matching figures for `CC(C)CCn1c(=O)c2ccccc2n2c(CCC(=O)NC3CCN(Cc4ccccc4)CC3)nnc12`: -1.26%, 1.56%, -18.9%, -7.76% and 2.09%.
The matching figures for `O=C(O)c1ccc(CCCc2ccc(OCCc3ccc(F)cc3)cc2)o1`: -14.8%, -8.69%, 7.38%, -42.2% and -2.24%.
The corresponding values for `COc1cc(Nc2nc3c(s2)CCCC3c2ccc(F)cc2)ccc1-n1cnc(C)c1` (stereo not drawn) are -3.52%, -29.2%, -12.2%, -43.7% and -21.1%.
Consider `CC(C)Oc1ccc(C2(C(=O)N3C[C@@H](C)[C@](O)(C4CC4)C3)CCCC2)cc1`, for which the activity change, negative = inhibition in assay [1] is -4.41%; in assay [2] it was -2.24%; in assay [3], -0.09%; in assay [4] it was -6.74%; in assay [5] it was -2.2%.
The matching figures for `CC(C)CCn1c(=O)c2ccccc2n2c(SCC(=O)Nc3cccc(Cl)c3)nnc12`: -3.11%, 0.622%, 2.57%, -3.73% and 0.919%.
The matching figures for `CCOCc1nc2c(N)nc3ccccc3c2n1CC(C)(C)O`: 5.33%, 2.29%, 4.23%, -11.7% and 0.368%.
Regarding `Cc1cccc2c1CC[C@H](CN1CCC(c3c(Cl)cccc3Cl)CC1)C[C@@H]2O`, the activity change, negative = inhibition was 0.381% in assay [1]; -7.9% in assay [2]; -3.04% in assay [3]; -21.4% in assay [4]; -14.3% in assay [5].
The matching figures for `CC1CCCCN1C(=O)Cn1c(=O)oc2cc(S(=O)(=O)N3CCCC3)ccc21` (stereo not drawn): -0.421%, 0%, 0.635%, 7.05% and -2.4%.
The corresponding values for `NCCNS(=O)(=O)c1cccc2c(Cl)cccc12` are -4.57%, 5.69%, -0.04%, -7.39% and 8.84%.
The matching figures for `Cc1ccc(N2C(=S)N[C@H]3[C@@H](O)[C@H](O)C[C@@H](C(=O)N4CCCCC4)[C@H]32)cc1`: -1.87%, 0.545%, -10.6%, 2.46% and 1.61%.
Turning to `CC1(C(=O)NCc2ccc(F)cc2)Cn2cnc(C(=O)NCCc3ccco3)c2C(=O)N1C1CC1` (stereo not drawn), the activity change, negative = inhibition amounted to 2.04% in assay [1]; 2.55% in assay [2]; 14.3% in assay [3]; 5.5% in assay [4]; 9.84% in assay [5].
As to `Cc1nn(C)c2c1C(c1ccc(C(F)(F)F)cc1)C(C#N)=C(N)O2` (stereo not drawn), the activity change, negative = inhibition is -7.85% in assay [1]; -10% in assay [2]; -0.413% in assay [3]; -25% in assay [4]; -10.8% in assay [5].
As for `Nc1ncnc2c1ncn2[C@@H]1O[C@H](COP(=O)(O)CP(=O)(O)OP(=O)(O)O)[C@@H](O)[C@H]1O`, the activity change, negative = inhibition in assay [1] is -2.75%; in assay [2], 11.3%; in assay [3], 2.35%; in assay [4], -2.13%; in assay [5], 4.7%.
